Experimental findings from article PMC4336329 (PLoS ONE, 2015) are described below.

Out of some 310,000 compounds screened, about 2,200 (0.71%) showed an effect of 50% or more. The effect is printed as a negative number. The list shows a part of the results.

Chain of human ether-à-go-go-related gene (hERG) potassium channel (Q12809 whole entry, looked up): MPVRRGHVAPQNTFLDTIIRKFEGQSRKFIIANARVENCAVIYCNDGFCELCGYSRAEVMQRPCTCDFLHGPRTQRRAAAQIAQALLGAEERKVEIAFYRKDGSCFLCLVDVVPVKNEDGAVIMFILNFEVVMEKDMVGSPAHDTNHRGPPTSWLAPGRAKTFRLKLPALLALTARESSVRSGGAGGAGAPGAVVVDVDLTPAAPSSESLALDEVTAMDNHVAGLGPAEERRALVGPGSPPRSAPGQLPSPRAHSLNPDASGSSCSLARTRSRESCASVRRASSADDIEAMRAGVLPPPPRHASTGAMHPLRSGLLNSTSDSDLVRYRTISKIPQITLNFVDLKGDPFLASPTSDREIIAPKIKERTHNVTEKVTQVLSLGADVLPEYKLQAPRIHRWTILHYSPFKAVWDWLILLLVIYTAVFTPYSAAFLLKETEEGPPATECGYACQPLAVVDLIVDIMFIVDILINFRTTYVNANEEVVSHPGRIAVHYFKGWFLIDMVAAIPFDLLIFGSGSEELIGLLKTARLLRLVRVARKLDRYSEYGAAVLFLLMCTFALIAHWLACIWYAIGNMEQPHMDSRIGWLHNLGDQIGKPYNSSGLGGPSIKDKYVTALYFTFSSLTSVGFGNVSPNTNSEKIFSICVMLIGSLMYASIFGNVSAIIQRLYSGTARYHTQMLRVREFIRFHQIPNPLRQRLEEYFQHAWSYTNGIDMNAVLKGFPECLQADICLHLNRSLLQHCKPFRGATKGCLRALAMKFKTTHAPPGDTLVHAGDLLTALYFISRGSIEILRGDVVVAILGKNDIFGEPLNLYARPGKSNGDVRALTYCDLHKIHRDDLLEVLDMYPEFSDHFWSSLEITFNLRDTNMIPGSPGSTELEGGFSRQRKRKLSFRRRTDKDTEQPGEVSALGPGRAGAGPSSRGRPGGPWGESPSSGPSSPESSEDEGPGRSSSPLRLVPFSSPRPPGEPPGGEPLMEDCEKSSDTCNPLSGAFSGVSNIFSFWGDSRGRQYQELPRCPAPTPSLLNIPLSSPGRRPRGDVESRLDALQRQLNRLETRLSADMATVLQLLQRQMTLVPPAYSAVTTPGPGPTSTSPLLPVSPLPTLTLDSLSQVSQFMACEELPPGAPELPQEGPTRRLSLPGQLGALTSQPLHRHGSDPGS

The assay concerns the target human ether-à-go-go-related gene (hERG) potassium channel (human, UniProt Q12809). The experiment in a line: primary screen, population patch clamp on CHO cells stably expressing hERG.
Consider `Cc1ccc(OC(=O)c2cccc(S(=O)(=O)N3CCN(C)CC3)c2)c(Br)c1`, for which the “hERG current change (%, negative = inhibition) at 1uM” value was 4.81%.

`Cc1nc(CSc2nsc(C)c2C#N)cs1`: the “hERG current change (%, negative = inhibition) at 1uM” value amounted to 13%.

Consider `COc1ccc(CNC(=O)CSc2nnc3c(n2)[nH]c2ccccc23)cc1`, for which the “hERG current change (%, negative = inhibition) at 1uM” value amounted to 12.2%.

Take `O=C(CSc1nnnn1-c1ccc2c(c1)OCCO2)c1cccc2c1OCCO2`: the “hERG current change (%, negative = inhibition) at 1uM” value is 7.8%.

With `Cc1ccc(/C=C/C(=O)Nc2cc(C)on2)cc1`, the “hERG current change (%, negative = inhibition) at 1uM” value was found to be 17%.

As for `CCOc1ccc(NC(=O)NCC2CCN(c3ccc(OC)cc3)C2)cc1` (centres unmarked), the “hERG current change (%, negative = inhibition) at 1uM” value is given as 1.75%.

In the case of `Cc1cc(C)nc(N2CCN(c3nnnn3-c3ccccc3)CC2)n1`, the “hERG current change (%, negative = inhibition) at 1uM” value is on record as 15.2%.

For the molecule `COc1ccc(S(=O)(=O)Nc2ccc(S(=O)(=O)Nc3nccs3)cc2)cc1`, the “hERG current change (%, negative = inhibition) at 1uM” value worked out at 12.7%.

Regarding `Cc1cc(C)c(C)c(S(=O)(=O)NCC(=O)Nc2sc3c(c2C(N)=O)CCCC3)c1C`, the “hERG current change (%, negative = inhibition) at 1uM” value was determined as 14.4%.

On to `Cc1nc(C)c(C(=O)O)s1`, for which the “hERG current change (%, negative = inhibition) at 1uM” value was -2.56%.

Turning to `COc1cc(NC(=O)Cc2ccccc2)c(C(=O)O)cc1OC`, the “hERG current change (%, negative = inhibition) at 1uM” value was found to be 12.6%.

`CCOC(=O)C1CCN(C2=NC(=O)/C(=C/c3ccccc3OC)S2)CC1`: the “hERG current change (%, negative = inhibition) at 1uM” value is on record as 9.82%.

For the molecule `CC1CC(C)CN(C(=O)c2cc3c(=O)n4ccccc4nc3s2)C1` (centres unmarked), the “hERG current change (%, negative = inhibition) at 1uM” value worked out at 4.44%.

For the molecule `Cc1noc(C)c1COc1cccc(C(=O)NCc2ccccc2Cl)c1`, the “hERG current change (%, negative = inhibition) at 1uM” value is 16.8%.

In the case of `O=C(CSc1nnc(CNC(=O)c2cccs2)o1)NCc1ccc(F)cc1`, the “hERG current change (%, negative = inhibition) at 1uM” value is 6.8%.

Consider `CCC(C)(C)NC(=O)CN(CC1CCCO1)C(=O)CCC(=O)Nc1nccs1` (centres unmarked), for which the “hERG current change (%, negative = inhibition) at 1uM” value came to 9.1%.

In the case of `COc1ccc2c(c1)/C(=C/c1cnc[nH]1)C(=O)N2`, the “hERG current change (%, negative = inhibition) at 1uM” value stood at 5.96%.

As to `CCOC(=O)C1=CC[C@H]2c3c(c4ccc(OC)cc4n3C)C(=O)C1N2S(=O)(=O)c1ccc(C)cc1`, the “hERG current change (%, negative = inhibition) at 1uM” value is on record as 3.47%.

Turning to `O=C(N/N=C/c1cc2ccccc2nc1Cl)[C@H]1C[C@@H]1c1ccccc1`, the “hERG current change (%, negative = inhibition) at 1uM” value amounted to 13.5%.

On to `CC1CCCC(C)N1C(=O)c1cc(-c2ccc(Cl)c(Cl)c2)on1` (centres unmarked), for which the “hERG current change (%, negative = inhibition) at 1uM” value is 10.8%.

With `Cc1ccc(S(=O)(=O)NCCC(=O)Nc2ccc(C)c(Cl)c2)cc1C`, the “hERG current change (%, negative = inhibition) at 1uM” value is 13.7%.

Turning to `Cc1nc(N2CCN(S(=O)(=O)c3ccc(Br)cc3)CC2)c2c(C)c(C)sc2n1`, the “hERG current change (%, negative = inhibition) at 1uM” value was 8.04%.

Take `CC1=C(C)CC(C(=O)NNC(=O)c2ccccc2O)C(C(=O)O)C1` (centres unmarked): the “hERG current change (%, negative = inhibition) at 1uM” value came out at 11.4%.

As for `COc1cccc(CN(Cc2ccccc2F)S(=O)(=O)c2ccc(S(=O)(=O)NCc3ccccc3)cc2)c1`, the “hERG current change (%, negative = inhibition) at 1uM” value is on record as 20.2%.

Regarding `Cc1nn(CC(=O)N(C)C2CCS(=O)(=O)C2)c(C)c1[N+](=O)[O-]` (centres unmarked), the “hERG current change (%, negative = inhibition) at 1uM” value was determined as 19.9%.

For `Br.CC1CN2C(c3ccc(Cl)cc3)=CSC2=N1` (centres unmarked), the “hERG current change (%, negative = inhibition) at 1uM” value was -9.75%.

With `COc1ccc(C(=O)N2CCCC(Nc3ccc(C)c(C)c3)C2)cc1` (centres unmarked), the “hERG current change (%, negative = inhibition) at 1uM” value is listed as -0.108%.

For the molecule `Cc1ccc(S(=O)(=O)Nc2ccccc2/C=N/c2nc3ccccc3n2C)cc1`, the “hERG current change (%, negative = inhibition) at 1uM” value is given as -2.55%.

Consider `COc1ccc(-c2nc(CN3CCCCC3CCc3ccccn3)c(C)o2)cc1` (centres unmarked), for which the “hERG current change (%, negative = inhibition) at 1uM” value is listed as -79.4%.

With `COc1cccc(Oc2cnc(N)nc2-c2ccc(OC)cc2O)c1`, the “hERG current change (%, negative = inhibition) at 1uM” value was 4.61%.

`CC(C(=O)Nc1cc([N+](=O)[O-])ccc1Cl)N1CCN(c2ccc(O)cc2)CC1` (centres unmarked): the “hERG current change (%, negative = inhibition) at 1uM” value is 12.8%.

For `O=C(COc1ccccc1)NC1CCSc2ccccc21` (centres unmarked), the “hERG current change (%, negative = inhibition) at 1uM” value is 8.14%.

Turning to `Cc1c(NC(=O)c2cc3ccccc3o2)c(=O)n(-c2ccccc2)n1C`, the “hERG current change (%, negative = inhibition) at 1uM” value is -2.97%.

As to `CN1CCN(C(CC(=O)Nc2cccc(O)c2)C(=O)O)CC1` (centres unmarked), the “hERG current change (%, negative = inhibition) at 1uM” value came to 3.73%.

`COC(=O)CCCC1=CC2=CC(=O)C(C)(OC(=O)c3cccs3)C(=O)C2=CN1C1CCCC1` (centres unmarked): the “hERG current change (%, negative = inhibition) at 1uM” value was 10.3%.

Consider `COCCn1cnnc1SCC(=O)Nc1ccccc1C(=O)Nc1ccc2c(c1)OCO2`, for which the “hERG current change (%, negative = inhibition) at 1uM” value amounted to 16.5%.

Regarding `COc1ccc(-c2noc(CCC(=O)Nc3cc(Cl)c(OC)cc3OC)n2)cc1`, the “hERG current change (%, negative = inhibition) at 1uM” value was 9.23%.

For the molecule `CC(=O)N(CN1C(=O)c2ccc([N+](=O)[O-])cc2C1=O)c1cccc(C(=O)O)c1`, the “hERG current change (%, negative = inhibition) at 1uM” value is 11.1%.

For `CC(=O)C1(C)N(O)C(C)(C)C(c2cccs2)=[N+]1[O-]` (centres unmarked), the “hERG current change (%, negative = inhibition) at 1uM” value was found to be 12.7%.

`O=C1N(c2ccccc2)c2ccccc2C1(O)C(F)(F)F` (centres unmarked): the “hERG current change (%, negative = inhibition) at 1uM” value turned out to be 12.5%.

In the case of `COC(=O)c1sccc1-n1cccc1C(=O)C(=O)N1CC(C)OC(C)C1` (centres unmarked), the “hERG current change (%, negative = inhibition) at 1uM” value is on record as 14.3%.

On to `COc1cc(NS(=O)(=O)c2ccc(NC(=O)C34CC5CC(CC(C5)C3)C4)cc2)ncn1`, for which the “hERG current change (%, negative = inhibition) at 1uM” value turned out to be 0.132%.

Consider `CCN(CC)C(=O)c1ccc(CS(=O)(=O)c2ccc(OC)cc2)o1`, for which the “hERG current change (%, negative = inhibition) at 1uM” value is recorded as 2%.

`CCCSC1C(C)=C(C)C(=O)N1Cc1ccccc1` (centres unmarked): the “hERG current change (%, negative = inhibition) at 1uM” value stood at 14.7%.
